Measured values from the supplement of paper PMC4604168 (melanoma cell lines).
Some of the results follow. Repeats are few or missing, and single values can be far off.

How the values were obtained:
Experiment in all cases: cell count relative to DMSO control; melanoma cells; higher = more viable cells
Conditions in all cases: library dose: standard library concentration; 72 h
[1] = tested on: 501Mel
[2] = tested on: A101D
[3] = tested on: A2058
[4] = tested on: A375
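Note: cells treated in 1,536-well plates, then fixed and DAPI-stained, with nuclei counted from automated high-throughput microscope images.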

Row | Compound | cell count [1] [%] | cell count [2] [%] | cell count [3] [%] | cell count [4] [%]
1 | C[C@]1(O)C[C@@H](c2nc(-c3ccc4ccc(-c5ccccc5)nc4c3)c3c(N)nccn32)C1 + O=C1NC(=O)/C(=C/c2ccc(-c3ccc(F)cc3O)o2)S1 [AS252424] (first compound 2 µM, partner dose 5 µM) | 66.7 | 107 | 92.1 | 91.4
2 | CCN(CC)CCNC(=O)c1c(C)[nH]c(/C=C2\C(=O)Nc3ccc(F)cc32)c1C [sunitinib] + Oc1cc(-c2nc(-c3ccccc3)[nH]c2-c2ccncc2)ccc1Cl [L779450] (first compound 2 µM, partner dose 1 µM) | 42.2 | 51.1 | 46.5 | 53
3 | COc1cc([C@@H]2c3cc4c(cc3[C@@H](O[C@@H]3O[C@@H]5CO[C@@H](C)O[C@H]5[C@H](O)[C@H]3O)[C@H]3COC(=O)[C@H]23)OCO4)cc(OC)c1O [etoposide] + Oc1nc(-c2ccc(C(F)(F)F)cc2)nc2c1CSCC2 [XAV939] (first compound 0.1 µM, partner dose 10 µM) | 69.1 | 79.6 | 67.3 | 76
4 | CCN(CC)CCNC(=O)c1c(C)[nH]c(/C=C2\C(=O)Nc3ccc(F)cc32)c1C [sunitinib] + O=S(=O)(c1ccccc1)N(CC(F)(F)F)c1ccc(C(O)(C(F)(F)F)C(F)(F)F)cc1 [T0901317] (first compound 2 µM, partner dose 7 µM) | 22 | 71.5 | 78 | 106
5 | C[C@]1(O)C[C@@H](c2nc(-c3ccc4ccc(-c5ccccc5)nc4c3)c3c(N)nccn32)C1 + Oc1nc(-c2ccc(C(F)(F)F)cc2)nc2c1CSCC2 [XAV939] (first compound 2 µM, partner dose 10 µM) | 69.6 | 79.7 | 84.1 | 85.5
6 | C[C@]1(O)C[C@@H](c2nc(-c3ccc4ccc(-c5ccccc5)nc4c3)c3c(N)nccn32)C1 + COC(=O)c1sccc1S(=O)(=O)Nc1ccc(Nc2ccccc2)cc1OC [GSK0660] (first compound 2 µM, partner dose 5 µM) | 77.9 | 104 | 91.1 | 78.8
7 | C[C@]1(O)C[C@@H](c2nc(-c3ccc4ccc(-c5ccccc5)nc4c3)c3c(N)nccn32)C1 + O=C(Nc1ccccc1)c1cc([N+](=O)[O-])ccc1Cl [GW9662] (first compound 2 µM, partner dose 10 µM) | 59.3 | 96.2 | 107 | 105
8 | CCN(CC)CCNC(=O)c1c(C)[nH]c(/C=C2\C(=O)Nc3ccc(F)cc32)c1C [sunitinib] + COC(=O)c1sccc1S(=O)(=O)Nc1ccc(Nc2ccccc2)cc1OC [GSK0660] (first compound 2 µM, partner dose 5 µM) | 40.2 | 61.2 | 85.2 | 122
9 | COc1cc([C@@H]2c3cc4c(cc3[C@@H](O[C@@H]3O[C@@H]5CO[C@@H](C)O[C@H]5[C@H](O)[C@H]3O)[C@H]3COC(=O)[C@H]23)OCO4)cc(OC)c1O [etoposide] + N#Cc1c(O)c2c(-c3ccc(-c4ccccc4O)cc3)csc2[nH]c1=O [A769662] (first compound 0.1 µM, partner dose 10 µM) | 72.6 | 107 | 81.1 | 83
10 | Cn1cnc2c(F)c(Nc3ccc(Br)cc3Cl)c(C(=O)NOCCO)cc21 [selumetinib] + COc1cc2ncnc(Nc3ccc(Oc4ccccc4)cc3)c2cc1OC [SrcI1] (first compound 0.075 µM, partner dose 10 µM) | 35 | 71.8 | 76.2 | 108
11 | C[C@]1(O)C[C@@H](c2nc(-c3ccc4ccc(-c5ccccc5)nc4c3)c3c(N)nccn32)C1 + O=c1cc(-c2cccc3c2Sc2ccccc2S3)oc(N2CCOCC2)c1 [KU55933] (first compound 2 µM, partner dose 5 µM) | 80.1 | 75.4 | 87.1 | 88.2
12 | C[C@]1(O)C[C@@H](c2nc(-c3ccc4ccc(-c5ccccc5)nc4c3)c3c(N)nccn32)C1 + COc1ccc(COc2ccc(Cc3cnc(N)nc3N)cc2OC)cc1 [GW2580] (first compound 2 µM, partner dose 5 µM) | 54.7 | 83.7 | 79.5 | 76.6
13 | C[C@]1(O)C[C@@H](c2nc(-c3ccc4ccc(-c5ccccc5)nc4c3)c3c(N)nccn32)C1 + CCc1ccc(CCOc2ccc(CC3SC(=O)NC3=O)cc2)nc1 [pioglitazone] (first compound 2 µM, partner dose 10 µM) | 58.1 | 74.9 | 92 | 92.3
14 | C[C@]1(O)C[C@@H](c2nc(-c3ccc4ccc(-c5ccccc5)nc4c3)c3c(N)nccn32)C1 + COc1cc(N2CCC(N3CCN(C)CC3)CC2)ccc1Nc1ncc(Cl)c(Nc2ccccc2S(=O)(=O)C(C)C)n1 [NVP-TAE684] (first compound 2 µM, partner dose 0.4 µM) | 66.6 | 87.2 | 85.7 | 118
15 | C[C@]1(O)C[C@@H](c2nc(-c3ccc4ccc(-c5ccccc5)nc4c3)c3c(N)nccn32)C1 + c1cc(-c2cnn3cc(-c4ccc(OCCN5CCCCC5)cc4)cnc23)ccn1 [Dorsomorphin] (first compound 2 µM, partner dose 2 µM) | 48.1 | 87 | 75.8 | 75
16 | Cn1cnc2c(F)c(Nc3ccc(Br)cc3Cl)c(C(=O)NOCCO)cc21 [selumetinib] + CC(C)CCN1c2nc(Nc3cc(F)c(O)c(F)c3)ncc2N(C)C(=O)C1C [BID1870] (first compound 0.075 µM, partner dose 1 µM) | 44.1 | 59.3 | 95.8 | 90.6
17 | CCN(CC)CCNC(=O)c1c(C)[nH]c(/C=C2\C(=O)Nc3ccc(F)cc32)c1C [sunitinib] + CCCCCCCCCCCC1=C(O)C(=O)C=C(O)C1=O [Embelin] (first compound 2 µM, partner dose 6 µM) | 42.1 | 51.3 | 87 | 114
18 | Cn1cnc2c(F)c(Nc3ccc(Br)cc3Cl)c(C(=O)NOCCO)cc21 [selumetinib] + COc1ccc(COc2ccc(Cc3cnc(N)nc3N)cc2OC)cc1 [GW2580] (first compound 0.075 µM, partner dose 5 µM) | 45.7 | 95.5 | 112 | 82.8
19 | COc1cc([C@@H]2c3cc4c(cc3[C@@H](O[C@@H]3O[C@@H]5CO[C@@H](C)O[C@H]5[C@H](O)[C@H]3O)[C@H]3COC(=O)[C@H]23)OCO4)cc(OC)c1O [etoposide] + Cn1cc(/C=C2\C(=O)Nc3cccnc32)c2ccccc21 [GW441756] (first compound 0.1 µM, partner dose 2 µM) | 75.7 | 94.2 | 93.1 | 91.2
20 | COc1cc([C@@H]2c3cc4c(cc3[C@@H](O[C@@H]3O[C@@H]5CO[C@@H](C)O[C@H]5[C@H](O)[C@H]3O)[C@H]3COC(=O)[C@H]23)OCO4)cc(OC)c1O [etoposide] + COc1cc2ncnc(Nc3ccc(Oc4ccccc4)cc3)c2cc1OC [SrcI1] (first compound 0.1 µM, partner dose 10 µM) | 76.4 | 87.2 | 73.4 | 107
21 | C[C@]1(O)C[C@@H](c2nc(-c3ccc4ccc(-c5ccccc5)nc4c3)c3c(N)nccn32)C1 + COc1cc2ncnc(Nc3ccc(Oc4ccccc4)cc3)c2cc1OC [SrcI1] (first compound 2 µM, partner dose 10 µM) | 77 | 38.8 | 98.4 | 99.9
22 | COc1cc([C@@H]2c3cc4c(cc3[C@@H](O[C@@H]3O[C@@H]5CO[C@@H](C)O[C@H]5[C@H](O)[C@H]3O)[C@H]3COC(=O)[C@H]23)OCO4)cc(OC)c1O [etoposide] + CCCCCCCCCCCC1=C(O)C(=O)C=C(O)C1=O [Embelin] (first compound 0.1 µM, partner dose 6 µM) | 81.2 | 74.1 | 78.2 | 75.8
23 | CCN(CC)CCNC(=O)c1c(C)[nH]c(/C=C2\C(=O)Nc3ccc(F)cc32)c1C [sunitinib] + COc1ccc2c(c1)CCC1C2CCC2(C)C(NCCCCCCN3C(=O)C=CC3=O)CCC12 [U73122] (first compound 2 µM, partner dose 2 µM) | 38.1 | 31.9 | 47.4 | 79.1
24 | C[C@]1(O)C[C@@H](c2nc(-c3ccc4ccc(-c5ccccc5)nc4c3)c3c(N)nccn32)C1 + CCN(CC)CCCCNc1ncc2cc(-c3cc(OC)cc(OC)c3)c(NC(=O)NC(C)(C)C)nc2n1 [PD173074] (first compound 2 µM, partner dose 0.5 µM) | 77.8 | 105 | 108 | 82.8
25 | C[C@]1(O)C[C@@H](c2nc(-c3ccc4ccc(-c5ccccc5)nc4c3)c3c(N)nccn32)C1 + CC(C)CCN1c2nc(Nc3cc(F)c(O)c(F)c3)ncc2N(C)C(=O)C1C [BID1870] (first compound 2 µM, partner dose 1 µM) | 51.1 | 68.2 | 87.7 | 88.4
26 | COc1cc([C@@H]2c3cc4c(cc3[C@@H](O[C@@H]3O[C@@H]5CO[C@@H](C)O[C@H]5[C@H](O)[C@H]3O)[C@H]3COC(=O)[C@H]23)OCO4)cc(OC)c1O [etoposide] + O=S(=O)(c1ccccc1)N(CC(F)(F)F)c1ccc(C(O)(C(F)(F)F)C(F)(F)F)cc1 [T0901317] (first compound 0.1 µM, partner dose 7 µM) | 83.2 | 99.4 | 67.6 | 67.9
